Assay results reported in the antibiotic and cytotoxicity screens of Wong et al. (2023).
Some of the results follow.

system: HSkMC (human skeletal muscle cells); assay: cytotoxicity call (relative viability < 0.9); conditions: 10 µM

Compound | cytotoxicity call
C[N+]1(C)C[C@@H](O)C[C@H]1C(=O)O | inactive
COCC#Cc1cnc2c(c1)C(=O)N([C@H](C)CO)C[C@H](C)[C@H](CN(C)C(C)=O)O2 | inactive
COc1ccccc1C#Cc1cnc2c(c1)C(=O)N([C@H](C)CO)C[C@@H](C)[C@@H](CN(C)C(=O)CN(C)C)O2 | inactive
Cc1noc(C)c1NC(=O)Nc1ccc2c(c1)C(=O)N([C@H](C)CO)C[C@H](C)[C@H](CN(C)C(=O)Nc1cccc3ccccc13)O2 | inactive
CN1C(=O)c2cc(NC(=O)c3ccno3)ccc2OC[C@H]2O[C@@H](CC(=O)NC3Cc4ccccc4C3)CC[C@@H]21 | inactive
C[C@@H]1CN([C@@H](C)CO)C(=O)Cc2cc(NC(=O)NC3CCCCC3)ccc2O[C@@H]1CN(C)Cc1ccc(Oc2ccccc2)cc1 | inactive
C[C@H]1CCCCO[C@@H](CN(C)Cc2ccccc2)[C@@H](C)CN([C@@H](C)CO)C(=O)c2cc(NS(=O)(=O)c3ccc(F)cc3)ccc2O1 | inactive
C[C@H]1CCCCO[C@H](CN(C)S(C)(=O)=O)[C@@H](C)CN([C@@H](C)CO)C(=O)c2cc(NS(=O)(=O)c3ccccc3)ccc2O1 | inactive
COc1ccc(C#Cc2cnc3c(c2)C(=O)N([C@H](C)CO)C[C@H](C)[C@H](CN(C)C(=O)CN(C)C)O3)cc1 | inactive
CC(=O)N1Cc2cc(C(=O)NCc3cc(F)cc(F)c3)nc(-c3cccc(C4=CCCC4)c3)c2[C@@H]1CCO | inactive
C[C@H]1CN([C@@H](C)CO)C(=O)CCCn2cc(nn2)CO[C@@H]1CN(C)C(=O)c1ccc(N2CCN(C)CC2)cc1 | inactive
